This is an account of results in the antibiotic and cytotoxicity screens of Wong et al. (2023).

Some of the results follow.

One assay relates to HSkMC. The experiment in a line: cytotoxicity call (relative viability < 0.9). The following applies: 10 µM.
For a further assay, the system named is HepG2. The assay can be described thus: cytotoxicity call (relative viability < 0.9). The following applies: 10 µM.
The test system of the next assay is S. aureus RN4220. The experiment in a line: growth inhibition call (relative growth <= 0.2). The following applies: 50 µM.

For the compound `CO[C@@H](CN(C)S(=O)(=O)c1ccc(C)cc1)[C@@H](C)CN([C@@H](C)CO)S(=O)(=O)c1cccc(Cl)c1`, the cytotoxicity call in the assay on HSkMC and with HepG2 was “inactive” in each case. Further, the growth inhibition call with S. aureus RN4220 is “inactive”.

`Cc1noc(C)c1NC(=O)N(C)C[C@H]1Oc2ccc(NC(=O)CCN3CCOCC3)cc2CC(=O)N([C@H](C)CO)C[C@H]1C`: the cytotoxicity call with HSkMC and in the assay with HepG2 was “inactive” in each case. In addition, the growth inhibition call in the assay on S. aureus RN4220 is “inactive”.

Regarding `C=CC[C@@H](CC(=O)NCCO)C(=O)NC[C@H](OC(=O)[C@@H](CC=C)CC(=O)OC(C)(C)C)c1ccccc1`, the cytotoxicity call in the assay with HSkMC and in the assay with HepG2 was “inactive” throughout. Further, the growth inhibition call in the assay with S. aureus RN4220 is “inactive”.

`COCC(=O)N1C[C@@H](C)[C@@H](OC)CN(C)C(=O)c2ccc(NC(=O)c3ccc(OC)cc3)cc2OC[C@@H]1C`: the cytotoxicity call in the assay with HSkMC and in the assay on HepG2 was “inactive” throughout. Further, the growth inhibition call in the assay with S. aureus RN4220 is “inactive”.

In the case of `CC(C)NC(=O)N(C)C[C@@H]1Oc2ccc(NC(=O)CCN3CCOCC3)cc2CC(=O)N([C@H](C)CO)C[C@H]1C`, the cytotoxicity call in the assay with HSkMC and in the assay with HepG2 was “inactive” in each case. For the same compound, the growth inhibition call in the assay with S. aureus RN4220 was “inactive”.

For `COCCOC(=O)N1C(=O)[C@@]2(c3cc(C#CCC(C(=O)OC)C(=O)OC)ccc31)[C@H](c1ccc(O)cc1)N1[C@H](c3ccccc3)[C@H](c3ccccc3)OC(=O)[C@H]1[C@@H]2C(=O)N1CCc2cc(OC)c(OC)cc2C1`, the cytotoxicity call in the assay with HSkMC and with HepG2 was “inactive” each time. The growth inhibition call in the assay on S. aureus RN4220 was “inactive”.

On to `C[C@H](CO)N1C[C@H](C)[C@@H](CN(C)Cc2ccc(C(F)(F)F)cc2)OCCCC[C@H](C)Oc2ccc(NS(C)(=O)=O)cc2C1=O`, for which the cytotoxicity call in the assay on HSkMC and in the assay with HepG2 was “inactive” throughout. The growth inhibition call in the assay with S. aureus RN4220 was “inactive”.

As to `O=C1NC(=O)C(c2cnc3ccccn23)=C1c1cn2c3c(cc(F)cc13)CN(C(=O)N1CCCCC1)CC2`, the cytotoxicity call in the assay on HSkMC was “inactive”. Also, the cytotoxicity call with HepG2 was “active”. In addition, the growth inhibition call with S. aureus RN4220 is “inactive”.

For `COCC#Cc1ccc2c(c1)O[C@@H](CN(C)Cc1ccccc1F)[C@H](C)CN([C@H](C)CO)S2(=O)=O`, the cytotoxicity call with HSkMC and in the assay on HepG2 was “inactive” throughout. For the same compound, the growth inhibition call with S. aureus RN4220 was “inactive”.

As for `C[C@@H]1CCCCO[C@@H](CN(C)C(=O)Nc2ccc(C(F)(F)F)cc2)[C@H](C)CN([C@@H](C)CO)C(=O)c2cc(NC(=O)Nc3ccc(F)cc3)ccc2O1`, the cytotoxicity call in the assay with HSkMC and with HepG2 was “inactive” throughout. Moreover, the growth inhibition call in the assay on S. aureus RN4220 was “inactive”.

In the case of `C[C@H](CO)N1C[C@H](C)[C@H](CN(C)C(=O)Nc2ccccc2)OCCCC[C@H](C)Oc2ccc(NC(=O)c3ccccc3)cc2C1=O`, the cytotoxicity call with HSkMC and with HepG2 was “inactive” each time. Moreover, the growth inhibition call with S. aureus RN4220 is “inactive”.

In the case of `Nc1ccccc1C(=O)C[C@H](N)C(=O)O`, the cytotoxicity call in the assay on HSkMC and with HepG2 was “inactive” in each case. Further, in the assay on S. aureus RN4220, the growth inhibition call is “inactive”.

In the case of `O=C(NCC[C@H]1CC[C@@H](NS(=O)(=O)c2cccc(F)c2)[C@@H](CO)O1)C1CC1`, the cytotoxicity call in the assay with HSkMC and with HepG2 was “inactive” each time. Besides, the growth inhibition call in the assay on S. aureus RN4220 was “inactive”.

As for `C[C@H](CO)N1C[C@H](C)[C@@H](CN(C)Cc2ccc(C(=O)O)cc2)Oc2ncc(Br)cc2C1=O`, the cytotoxicity call in the assay on HSkMC and with HepG2 was “inactive” each time. The growth inhibition call in the assay with S. aureus RN4220 was “inactive”.

Take `C[C@@H]1CCCCO[C@H](CN(C)C(=O)Nc2ccccc2)[C@H](C)CN([C@@H](C)CO)C(=O)c2cc(NS(=O)(=O)c3ccccc3)ccc2O1`: the cytotoxicity call in the assay with HSkMC and with HepG2 was “inactive” throughout. Further, in the assay on S. aureus RN4220, the growth inhibition call is “inactive”.

Consider `C[C@H](CO)N1C[C@H](C)[C@H](CN(C)Cc2ccc(C(F)(F)F)cc2)Oc2ccc(NC(=O)Cc3ccccc3)cc2C1=O`, for which the cytotoxicity call in the assay on HSkMC and with HepG2 was “inactive” throughout. Also, the growth inhibition call in the assay on S. aureus RN4220 was “inactive”.

Take `Cc1ccc(S(=O)(=O)Nc2ccc3c(c2)C(=O)N([C@@H](C)CO)C[C@H](C)[C@@H](CN(C)S(=O)(=O)c2ccc(Cl)cc2)OCCCC[C@H](C)O3)cc1`: the cytotoxicity call with HSkMC was “inactive”. In addition, the cytotoxicity call with HepG2 was “active”. For the same compound, the growth inhibition call with S. aureus RN4220 was “inactive”.

Turning to `C[C@H](CO)N1C[C@H](C)[C@H](CN(C)Cc2ccccn2)Oc2ncc(C#Cc3ccc(F)cc3)cc2C1=O`, the cytotoxicity call with HSkMC and in the assay on HepG2 was “inactive” in each case. Also, in the assay on S. aureus RN4220, the growth inhibition call is “inactive”.

Turning to `COCC(=O)Nc1ccc2c(c1)C(=O)N(C)[C@H]1CC[C@H](CC(=O)NC3Cc4ccccc4C3)O[C@H]1CO2`, the cytotoxicity call in the assay with HSkMC and with HepG2 was “inactive” each time. Besides, the growth inhibition call in the assay on S. aureus RN4220 is “inactive”.

Turning to `O=C(Cc1ccncc1)Nc1ccc2c(c1)[C@@H]1C[C@H](CC(=O)N3CCc4ccccc4C3)O[C@H](CO)[C@@H]1O2`, the cytotoxicity call with HSkMC and in the assay on HepG2 was “inactive” in each case. In the assay with S. aureus RN4220, the growth inhibition call was “inactive”.

`O=C(C[C@H]1C=C[C@H](NC(=O)c2ccc(F)cc2)[C@@H](CO)O1)NCc1ccncn1`: the cytotoxicity call in the assay on HSkMC and in the assay on HepG2 was “inactive” each time. Moreover, in the assay with S. aureus RN4220, the growth inhibition call was “inactive”.

Turning to `Cc1ccc(S(=O)(=O)N(C)C[C@@H]2OCCCC[C@@H](C)Oc3ccc(NS(=O)(=O)c4ccc(F)cc4)cc3C(=O)N([C@H](C)CO)C[C@H]2C)cc1`, the cytotoxicity call in the assay on HSkMC and with HepG2 was “active” each time. In addition, in the assay on S. aureus RN4220, the growth inhibition call is “inactive”.

In the case of `Cc1cc(C)c(S(=O)(=O)N2CCO[C@@H]2CNC(=O)C(=O)NCCCN2CCCC2=O)c(C)c1`, the cytotoxicity call in the assay on HSkMC and in the assay with HepG2 was “inactive” in each case. Moreover, the growth inhibition call in the assay on S. aureus RN4220 is “inactive”.

`C[C@H](CO)N1C[C@H](C)[C@H](CN(C)C(=O)Cc2ccccc2)OCCCC[C@H](C)Oc2ccc(NC(=O)CCC(F)(F)F)cc2C1=O`: the cytotoxicity call in the assay on HSkMC (human skeletal muscle cells) and with HepG2 was “inactive” each time. In addition, the growth inhibition call in the assay with S. aureus RN4220 is “inactive”.
